# Experimental data from publication PMC12820563.
# The other results are listed elsewhere or left out. The list includes weakly bound sequences.
# Biological target: T1, MBP-FoxP3dN (UniProt Q99JB6)
# T1 sequence: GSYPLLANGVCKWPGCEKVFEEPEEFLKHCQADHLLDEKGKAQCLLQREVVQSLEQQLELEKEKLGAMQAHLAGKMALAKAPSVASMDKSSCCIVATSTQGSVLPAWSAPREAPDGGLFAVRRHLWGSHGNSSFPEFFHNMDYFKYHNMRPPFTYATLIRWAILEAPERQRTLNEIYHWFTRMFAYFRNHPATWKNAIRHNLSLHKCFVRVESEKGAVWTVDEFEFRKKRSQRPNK
# Assay: PD-seq (MBP pull-down with sequencing)
# Details: 20 mM Tris-HCl pH 7.5, 100 mM NaCl, 1.5 mM MgCl2, 0.4 uM protein, 0.1 uM dsDNA library, 30 min, room temperature, amylose pull-down; high values mean tight binding; double strand, one strand shown
row,Sequence,binding signal (RPM ratio (pull-down/input))
1,GATGATTGTTCTCCCAGCTGATGAATTGAGAGTCTCGAGTAAACAAATTTTCCTAATCTTTCTGTTCAAGCGCCATCTAC,1.06
2,GATGATTGTTCTCCCAGCTGATGAATTAGGGGAATCGAGTAAACAAATTTTCCTAATCTTTCTGTTCAAGCGCCATCTAC,0.219
3,GATGATTGTTCTCCCAGCTGATGAATTGCTGGTTTCGAGTAAACAAATTTTCCTAATCTTTCTGTTCAAGCGCCATCTAC,0.923
4,GATGATTGTTCTCCCAGCTGATGAATTCTGGCTGTCGAGTAAACAAATTTTCCTAATCTTTCTGTTCAAGCGCCATCTAC,0.332
5,GATGATTGTTCTCCCAGCTGATGAATTGCAGCTCTCGAGTAAACAAATTTTCCTAATCTTTCTGTTCAAGCGCCATCTAC,0.924
6,GATGATTGTTCTCCCAGCTGATGAATTTGCGCGGTCGAGTAAACAAATTTTCCTAATCTTTCTGTTCAAGCGCCATCTAC,0.709
7,GATGATTGTTCTCCCAGCTGATGAATTATCCTTTTCGAGTAAACAAATTTTCCTAATCTTTCTGTTCAAGCGCCATCTAC,0.278
8,GATGATTGTTCTCCCAGCTGATGAATTAGTCCTTTCGAGTAAACAAATTTTCCTAATCTTTCTGTTCAAGCGCCATCTAC,0.643
9,GATGATTGTTCTCCCAGCTGATGAATTTCTGGGGTCGAGTAAACAAATTTTCCTAATCTTTCTGTTCAAGCGCCATCTAC,0.205
10,GATGATTGTTCTCCCAGCTGATGAATTGCGACTATCGAGTAAACAAATTTTCCTAATCTTTCTGTTCAAGCGCCATCTAC,1.49
11,GATGATTGTTCTCCCAGCTGATGAATTGTCCCACTCGAGTAAACAAATTTTCCTAATCTTTCTGTTCAAGCGCCATCTAC,0.402
12,GATGATTGTTCTCCCAGCTGATGAATTCCTTATCTCGAGTAAACAAATTTTCCTAATCTTTCTGTTCAAGCGCCATCTAC,0.277
13,GATGATTGTTCTCCCAGCTGATGAATTTAACCGCTCGAGTAAACAAATTTTCCTAATCTTTCTGTTCAAGCGCCATCTAC,0.298
14,GATGATTGTTCTCCCAGCTGATGAATTGGTAAGGTCGAGTAAACAAATTTTCCTAATCTTTCTGTTCAAGCGCCATCTAC,0.342
15,GATGATTGTTCTCCCAGCTGATGAATTTAGTTCTTCGAGTAAACAAATTTTCCTAATCTTTCTGTTCAAGCGCCATCTAC,1.07
16,GATGATTGTTCTCCCAGCTGATGAATTGCCACGCTCGAGTAAACAAATTTTCCTAATCTTTCTGTTCAAGCGCCATCTAC,0.867
17,GATGATTGTTCTCCCAGCTGATGAATTGTCAAGATCGAGTAAACAAATTTTCCTAATCTTTCTGTTCAAGCGCCATCTAC,0.243
18,GATGATTGTTCTCCCAGCTGATGAATTCCCCTCATCGAGTAAACAAATTTTCCTAATCTTTCTGTTCAAGCGCCATCTAC,0.34
19,GATGATTGTTCTCCCAGCTGATGAATTAGTGGACTCGAGTAAACAAATTTTCCTAATCTTTCTGTTCAAGCGCCATCTAC,1.19
20,GATGATTGTTCTCCCAGCTGATGAATTCACGAACTCGAGTAAACAAATTTTCCTAATCTTTCTGTTCAAGCGCCATCTAC,0.244

row,Sequence,binding signal (RPM ratio (pull-down/input))
1,GATGATTGTTCTCCCAGCTGATGAATTGAAATCATCGAGTAAACAAATTTTCCTAATCTTTCTGTTCAAGCGCCATCTAC,0.494
2,GATGATTGTTCTCCCAGCTGATGAATTTTAACGTTCGAGTAAACAAATTTTCCTAATCTTTCTGTTCAAGCGCCATCTAC,0.511
3,GATGATTGTTCTCCCAGCTGATGAATTTAGCTAATCGAGTAAACAAATTTTCCTAATCTTTCTGTTCAAGCGCCATCTAC,0.352
4,GATGATTGTTCTCCCAGCTGATGAATTTGTCCGTTCGAGTAAACAAATTTTCCTAATCTTTCTGTTCAAGCGCCATCTAC,1.78
5,GATGATTGTTCTCCCAGCTGATGAATTGGTGGTGTCGAGTAAACAAATTTTCCTAATCTTTCTGTTCAAGCGCCATCTAC,1.87
6,GATGATTGTTCTCCCAGCTGATGAATTATAACATTCGAGTAAACAAATTTTCCTAATCTTTCTGTTCAAGCGCCATCTAC,0.994
7,GATGATTGTTCTCCCAGCTGATGAATTGAAACGCTCGAGTAAACAAATTTTCCTAATCTTTCTGTTCAAGCGCCATCTAC,0.309
8,GATGATTGTTCTCCCAGCTGATGAATTAAAGTCTTCGAGTAAACAAATTTTCCTAATCTTTCTGTTCAAGCGCCATCTAC,0.349
9,GATGATTGTTCTCCCAGCTGATGAATTTCGAGAGTCGAGTAAACAAATTTTCCTAATCTTTCTGTTCAAGCGCCATCTAC,0.264
10,GATGATTGTTCTCCCAGCTGATGAATTGAGCGGTTCGAGTAAACAAATTTTCCTAATCTTTCTGTTCAAGCGCCATCTAC,0.529
11,GATGATTGTTCTCCCAGCTGATGAATTTTCAATATCGAGTAAACAAATTTTCCTAATCTTTCTGTTCAAGCGCCATCTAC,0.409
12,GATGATTGTTCTCCCAGCTGATGAATTTTACGGGTCGAGTAAACAAATTTTCCTAATCTTTCTGTTCAAGCGCCATCTAC,0.195
13,GATGATTGTTCTCCCAGCTGATGAATTGTGGCGATCGAGTAAACAAATTTTCCTAATCTTTCTGTTCAAGCGCCATCTAC,1.74
14,GATGATTGTTCTCCCAGCTGATGAATTGGTCACCTCGAGTAAACAAATTTTCCTAATCTTTCTGTTCAAGCGCCATCTAC,0.631
15,GATGATTGTTCTCCCAGCTGATGAATTCAGGTAGTCGAGTAAACAAATTTTCCTAATCTTTCTGTTCAAGCGCCATCTAC,0.414
16,GATGATTGTTCTCCCAGCTGATGAATTAGAGTGGTCGAGTAAACAAATTTTCCTAATCTTTCTGTTCAAGCGCCATCTAC,0.553
17,GATGATTGTTCTCCCAGCTGATGAATTCCCGCAATCGAGTAAACAAATTTTCCTAATCTTTCTGTTCAAGCGCCATCTAC,2.48
18,GATGATTGTTCTCCCAGCTGATGAATTCCAGGGGTCGAGTAAACAAATTTTCCTAATCTTTCTGTTCAAGCGCCATCTAC,0.322
19,GATGATTGTTCTCCCAGCTGATGAATTGTAGATATCGAGTAAACAAATTTTCCTAATCTTTCTGTTCAAGCGCCATCTAC,0.648
20,GATGATTGTTCTCCCAGCTGATGAATTTTACAGGTCGAGTAAACAAATTTTCCTAATCTTTCTGTTCAAGCGCCATCTAC,0.178
